This is a noisy data set.
experiment: amyloid nucleation score relative to library mode (yeast Sup35 reporter selection) (log enrichment difference); higher = more amyloid nucleation; sequences are the first 22 residues of the Bri2 peptide extended by up to 12 random residues; settings: random library (experiment): 1;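 active = nucleation score significantly above 0 at FDR 0.05; inactive = not significantly above 0 or absent from output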
Experimental: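 Random C-terminal extensions of the 22-aa Bri2 peptide by 12 NNK codons; premature stops give shorter extensions. Peptides were fused to the Sup35 nucleation domain in S. cerevisiae [psi-pin-] and selected on -ADE-URA plates for 7 d at 30 °C. The nucleation score is log(output/input), centred to the mode of each of 3 independent libraries (1 input, 3 technical output replicates), with duplicates merged. Sequences absent from the output ('random_non_nuc') were imputed with the library mode value, so they are given as censored (<). Nucleators are scores significantly >0 at FDR 0.05.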
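Also: [psi-pin-] Saccharomyces cerevisiae expressing SupN fusions, induced by 100 µM Cu2SO4, selected 7 d at 30 °C without adenine and uracil, scored by deep sequencing of output versus input.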

For EASNCFAIRHFENKFAVETLICAIASAMVEASAY, which amyloid nucleation score is on record?
The amyloid nucleation score was “inactive”.

For EASNCFAIRHFENKFAVETLICAIEESWATRLVE, which amyloid nucleation score is on record?
Its amyloid nucleation score is “inactive”.

For EASNCFAIRHFENKFAVETLICAIEI, which amyloid nucleation score is on record?
The amyloid nucleation score was -0.399.

For EASNCFAIRHFENKFAVETLICAIG, which amyloid nucleation score is on record?
The amyloid nucleation score was “inactive”.

For EASNCFAIRHFENKFAVETLICAIGMSFGHYHHQ, which amyloid nucleation score is on record?
Its amyloid nucleation score is 2.35.

With EASNCFAIRHFENKFAVETLICAIHFFIGGRGRA as the sequence, how does the amyloid nucleation score read?
The amyloid nucleation score was “inactive”.

With EASNCFAIRHFENKFAVETLICAIMR as the sequence, how does the amyloid nucleation score read?
The amyloid nucleation score was “inactive”.

With EASNCFAIRHFENKFAVETLICAINAIIVLYMLE as the sequence, how does the amyloid nucleation score read?
Its amyloid nucleation score is “inactive”.

For EASNCFAIRHFENKFAVETLICAINLCYSYCRRA, which amyloid nucleation score is on record?
The amyloid nucleation score was 2.44.

With EASNCFAIRHFENKFAVETLICAITFGVWGGYL as the sequence, how does the amyloid nucleation score read?
Its amyloid nucleation score is 1.28.

With EASNCFAIRHFENKFAVETLICAIVPYIMLDKCG as the sequence, how does the amyloid nucleation score read?
Its amyloid nucleation score is “inactive”.

With EASNCFAIRHFENKFAVETLICAIVSERVHAMVQ as the sequence, how does the amyloid nucleation score read?
Its amyloid nucleation score is 1.22.

With EASNCFAIRHFENKFAVETLICAK as the sequence, how does the amyloid nucleation score read?
Its amyloid nucleation score is “inactive”.

For EASNCFAIRHFENKFAVETLICAKGFFRSEAVS, which amyloid nucleation score is on record?
The amyloid nucleation score was “inactive”.

With EASNCFAIRHFENKFAVETLICAKGSHEGRPCPG as the sequence, how does the amyloid nucleation score read?
The amyloid nucleation score was “inactive”.

With EASNCFAIRHFENKFAVETLICAKLFNRYRFIVV as the sequence, how does the amyloid nucleation score read?
The amyloid nucleation score was “inactive”.

Which amyloid nucleation score does the source give for EASNCFAIRHFENKFAVETLICAKLVRFVLHLKL here?
Its amyloid nucleation score is “inactive”.

With EASNCFAIRHFENKFAVETLICAKRKGATTRRCL as the sequence, how does the amyloid nucleation score read?
Its amyloid nucleation score is “inactive”.

For EASNCFAIRHFENKFAVETLICAKRVFNLRCRKG, which amyloid nucleation score is on record?
Its amyloid nucleation score is -0.137.

Which amyloid nucleation score does the source give for EASNCFAIRHFENKFAVETLICAKRVGS here?
Its amyloid nucleation score is “inactive”.

For EASNCFAIRHFENKFAVETLICAKTSDLWLLLSE, which amyloid nucleation score is on record?
The amyloid nucleation score was “inactive”.

Which amyloid nucleation score does the source give for EASNCFAIRHFENKFAVETLICAL here?
The amyloid nucleation score was “inactive”.

For EASNCFAIRHFENKFAVETLICALCTHTWRGRRA, which amyloid nucleation score is on record?
Its amyloid nucleation score is 6.45.

Which amyloid nucleation score does the source give for EASNCFAIRHFENKFAVETLICALDVEPVVNTGV here?
The amyloid nucleation score was “inactive”.

Which amyloid nucleation score does the source give for EASNCFAIRHFENKFAVETLICALEESSFSWAYS here?
The amyloid nucleation score was “inactive”.

Which amyloid nucleation score does the source give for EASNCFAIRHFENKFAVETLICALESM here?
Its amyloid nucleation score is “inactive”.

With EASNCFAIRHFENKFAVETLICALFAVVLTGMPC as the sequence, how does the amyloid nucleation score read?
Its amyloid nucleation score is “inactive”.

For EASNCFAIRHFENKFAVETLICALFDDSGTVRSG, which amyloid nucleation score is on record?
Its amyloid nucleation score is “inactive”.

With EASNCFAIRHFENKFAVETLICALFDKSQCGSFR as the sequence, how does the amyloid nucleation score read?
The amyloid nucleation score was 3.77.

Which amyloid nucleation score does the source give for EASNCFAIRHFENKFAVETLICALFNMAGAYGER here?
Its amyloid nucleation score is 8.41.

With EASNCFAIRHFENKFAVETLICALG as the sequence, how does the amyloid nucleation score read?
Its amyloid nucleation score is 4.42.

For EASNCFAIRHFENKFAVETLICALGDATCSDGVR, which amyloid nucleation score is on record?
The amyloid nucleation score was 1.45.

Which amyloid nucleation score does the source give for EASNCFAIRHFENKFAVETLICALGLCQPKYGHW here?
The amyloid nucleation score was 4.07.

For EASNCFAIRHFENKFAVETLICALGLLRQRVRRL, which amyloid nucleation score is on record?
The amyloid nucleation score was “inactive”.

With EASNCFAIRHFENKFAVETLICALGSKLSYSLGV as the sequence, how does the amyloid nucleation score read?
Its amyloid nucleation score is 0.0198.

For EASNCFAIRHFENKFAVETLICALGVSGLAWRNE, which amyloid nucleation score is on record?
The amyloid nucleation score was 5.17.

With EASNCFAIRHFENKFAVETLICALGVYGAGRLLM as the sequence, how does the amyloid nucleation score read?
The amyloid nucleation score was “inactive”.

For EASNCFAIRHFENKFAVETLICALHATRCAPRQS, which amyloid nucleation score is on record?
The amyloid nucleation score was -0.154.

same assay, conditions: random library (experiment): 2

For EASNCFAIRHFENKFAVETLICAIIIGYCVTIPW, which amyloid nucleation score is on record?
The amyloid nucleation score was “inactive”.

For EASNCFAIRHFENKFAVETLICAILQ, which amyloid nucleation score is on record?
The amyloid nucleation score was “inactive”.

For EASNCFAIRHFENKFAVETLICAIMWGKKILSVL, which amyloid nucleation score is on record?
Its amyloid nucleation score is “inactive”.

For EASNCFAIRHFENKFAVETLICAIRLYYGLGSQW, which amyloid nucleation score is on record?
The amyloid nucleation score was “inactive”.

Which amyloid nucleation score does the source give for EASNCFAIRHFENKFAVETLICAIRQTGSKCVGL here?
Its amyloid nucleation score is “inactive”.

For EASNCFAIRHFENKFAVETLICAISFLYDNKRCS, which amyloid nucleation score is on record?
The amyloid nucleation score was “inactive”.

For EASNCFAIRHFENKFAVETLICAIVSSREARGGW, which amyloid nucleation score is on record?
The amyloid nucleation score was 4.64.

With EASNCFAIRHFENKFAVETLICAIYFIARLRPLF as the sequence, how does the amyloid nucleation score read?
Its amyloid nucleation score is “inactive”.

With EASNCFAIRHFENKFAVETLICAKEPVHMQGLRG as the sequence, how does the amyloid nucleation score read?
The amyloid nucleation score was 1.01.

For EASNCFAIRHFENKFAVETLICAKFSLSVQFRCE, which amyloid nucleation score is on record?
The amyloid nucleation score was 3.34.

Which amyloid nucleation score does the source give for EASNCFAIRHFENKFAVETLICAKVFTHGRAVTA here?
Its amyloid nucleation score is -0.344.

For EASNCFAIRHFENKFAVETLICAKVWTTDFVKVV, which amyloid nucleation score is on record?
The amyloid nucleation score was “inactive”.

Which amyloid nucleation score does the source give for EASNCFAIRHFENKFAVETLICAKYLRI here?
Its amyloid nucleation score is “inactive”.

Which amyloid nucleation score does the source give for EASNCFAIRHFENKFAVETLICALASLYSIWLHW here?
Its amyloid nucleation score is 0.571.

For EASNCFAIRHFENKFAVETLICALCCTVLAYD, which amyloid nucleation score is on record?
The amyloid nucleation score was 7.97.

Which amyloid nucleation score does the source give for EASNCFAIRHFENKFAVETLICALCFVYASMVGG here?
The amyloid nucleation score was “inactive”.

With EASNCFAIRHFENKFAVETLICALCWGGSFSAVT as the sequence, how does the amyloid nucleation score read?
Its amyloid nucleation score is 8.26.

For EASNCFAIRHFENKFAVETLICALDFLAPQAKVL, which amyloid nucleation score is on record?
The amyloid nucleation score was “inactive”.

Which amyloid nucleation score does the source give for EASNCFAIRHFENKFAVETLICALDIVGIEECCC here?
The amyloid nucleation score was 0.777.

Which amyloid nucleation score does the source give for EASNCFAIRHFENKFAVETLICALFLTSWACNLG here?
Its amyloid nucleation score is “inactive”.

With EASNCFAIRHFENKFAVETLICALFNMSRVSSTV as the sequence, how does the amyloid nucleation score read?
Its amyloid nucleation score is 5.65.

Which amyloid nucleation score does the source give for EASNCFAIRHFENKFAVETLICALGLSSAFTCKQ here?
Its amyloid nucleation score is “inactive”.

Which amyloid nucleation score does the source give for EASNCFAIRHFENKFAVETLICALHDDQLSFSSG here?
The amyloid nucleation score was “inactive”.

With EASNCFAIRHFENKFAVETLICALICFIYVVCRM as the sequence, how does the amyloid nucleation score read?
The amyloid nucleation score was 1.53.

same assay, conditions: random library (experiment): 3

Which amyloid nucleation score does the source give for EASNCFAIRHFENKFAVETLICAIGLMLGRLSRG here?
Its amyloid nucleation score is “inactive”.

For EASNCFAIRHFENKFAVETLICAIKSST, which amyloid nucleation score is on record?
The amyloid nucleation score was “inactive”.

For EASNCFAIRHFENKFAVETLICAILPVCFMFP, which amyloid nucleation score is on record?
The amyloid nucleation score was 2.81.

For EASNCFAIRHFENKFAVETLICAINLNMVRVTRS, which amyloid nucleation score is on record?
Its amyloid nucleation score is 5.5.

For EASNCFAIRHFENKFAVETLICAIRVWGRVSPWL, which amyloid nucleation score is on record?
The amyloid nucleation score was “inactive”.

For EASNCFAIRHFENKFAVETLICAKCI, which amyloid nucleation score is on record?
The amyloid nucleation score was -0.119.

For EASNCFAIRHFENKFAVETLICAKFASSARRLGA, which amyloid nucleation score is on record?
Its amyloid nucleation score is -0.0441.

Which amyloid nucleation score does the source give for EASNCFAIRHFENKFAVETLICAKGSEQARGPLR here?
Its amyloid nucleation score is “inactive”.

With EASNCFAIRHFENKFAVETLICAKKVRRMTTWEG as the sequence, how does the amyloid nucleation score read?
The amyloid nucleation score was 1.9.

For EASNCFAIRHFENKFAVETLICAKLGEGR, which amyloid nucleation score is on record?
Its amyloid nucleation score is “inactive”.

With EASNCFAIRHFENKFAVETLICAKRAYHWPRPSF as the sequence, how does the amyloid nucleation score read?
The amyloid nucleation score was “inactive”.

Which amyloid nucleation score does the source give for EASNCFAIRHFENKFAVETLICAKRCTCR here?
Its amyloid nucleation score is “inactive”.

Which amyloid nucleation score does the source give for EASNCFAIRHFENKFAVETLICAKRSEILAWCLR here?
The amyloid nucleation score was “inactive”.

Which amyloid nucleation score does the source give for EASNCFAIRHFENKFAVETLICAKV here?
The amyloid nucleation score was “inactive”.

With EASNCFAIRHFENKFAVETLICAKVSDPKFDRPQ as the sequence, how does the amyloid nucleation score read?
The amyloid nucleation score was “inactive”.

With EASNCFAIRHFENKFAVETLICAKVSQT as the sequence, how does the amyloid nucleation score read?
The amyloid nucleation score was “inactive”.

With EASNCFAIRHFENKFAVETLICALAYHRRCVVAC as the sequence, how does the amyloid nucleation score read?
The amyloid nucleation score was 0.512.

Which amyloid nucleation score does the source give for EASNCFAIRHFENKFAVETLICALFCTGGSGTVV here?
The amyloid nucleation score was -0.196.

For EASNCFAIRHFENKFAVETLICALFEGG, which amyloid nucleation score is on record?
The amyloid nucleation score was 4.32.

Which amyloid nucleation score does the source give for EASNCFAIRHFENKFAVETLICALHRSCDTKWSC here?
The amyloid nucleation score was “inactive”.

Which amyloid nucleation score does the source give for EASNCFAIRHFENKFAVETLICALHSVMWGPALS here?
The amyloid nucleation score was “inactive”.

With EASNCFAIRHFENKFAVETLICALIGVNCSSVAE as the sequence, how does the amyloid nucleation score read?
The amyloid nucleation score was 9.35.

With EASNCFAIRHFENKFAVETLICALILDWCMEERV as the sequence, how does the amyloid nucleation score read?
Its amyloid nucleation score is 0.788.

Which amyloid nucleation score does the source give for EASNCFAIRHFENKFAVETLICALKACDCWLVVA here?
The amyloid nucleation score was “inactive”.

From the supplement of paper PMC12067230
